Results published in article PMC4336329 (PLoS ONE, 2015).
Out of some 310,000 compounds screened, about 2,200 (0.71%) showed an effect of 50% or more. Effects have a minus sign here. The list shows a part of the results.

Biological target: human ether-à-go-go-related gene (hERG) potassium channel (human, UniProt Q12809)
Experiment: primary screen, population patch clamp on CHO cells stably expressing hERG

Sequence of human ether-à-go-go-related gene (hERG) potassium channel (Q12809 whole entry, looked up): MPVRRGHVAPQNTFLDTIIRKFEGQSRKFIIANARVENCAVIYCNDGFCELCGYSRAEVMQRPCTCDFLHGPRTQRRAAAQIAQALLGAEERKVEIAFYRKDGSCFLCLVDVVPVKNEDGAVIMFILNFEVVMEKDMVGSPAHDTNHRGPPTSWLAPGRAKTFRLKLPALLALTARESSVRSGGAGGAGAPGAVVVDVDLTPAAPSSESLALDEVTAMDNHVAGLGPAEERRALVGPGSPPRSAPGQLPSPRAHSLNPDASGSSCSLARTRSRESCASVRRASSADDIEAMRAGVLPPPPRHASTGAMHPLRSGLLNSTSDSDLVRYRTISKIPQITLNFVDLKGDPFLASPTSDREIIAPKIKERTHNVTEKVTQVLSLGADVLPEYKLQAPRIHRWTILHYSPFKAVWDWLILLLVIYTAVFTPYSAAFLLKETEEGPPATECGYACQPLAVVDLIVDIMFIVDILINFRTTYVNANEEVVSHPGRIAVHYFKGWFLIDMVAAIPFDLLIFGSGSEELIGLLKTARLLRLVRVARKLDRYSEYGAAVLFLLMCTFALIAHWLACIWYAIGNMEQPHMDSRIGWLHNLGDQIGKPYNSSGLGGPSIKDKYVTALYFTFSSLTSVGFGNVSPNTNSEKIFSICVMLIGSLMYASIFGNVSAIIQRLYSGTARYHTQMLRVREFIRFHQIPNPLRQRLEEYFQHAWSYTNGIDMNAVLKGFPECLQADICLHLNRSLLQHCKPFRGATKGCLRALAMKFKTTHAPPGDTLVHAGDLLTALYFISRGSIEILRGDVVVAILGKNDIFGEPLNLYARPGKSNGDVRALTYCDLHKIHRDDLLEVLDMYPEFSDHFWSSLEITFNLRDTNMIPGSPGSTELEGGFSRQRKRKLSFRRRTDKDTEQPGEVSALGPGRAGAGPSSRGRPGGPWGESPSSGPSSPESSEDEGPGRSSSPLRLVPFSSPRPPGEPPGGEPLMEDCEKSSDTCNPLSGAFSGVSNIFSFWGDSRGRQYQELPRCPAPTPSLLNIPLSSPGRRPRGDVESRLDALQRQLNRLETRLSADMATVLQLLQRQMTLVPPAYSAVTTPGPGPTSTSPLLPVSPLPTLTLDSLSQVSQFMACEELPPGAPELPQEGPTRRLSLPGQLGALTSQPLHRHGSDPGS

Row | SMILES | hERG current change (%, negative = inhibition) at 1uM
1 | CNC(=S)N/N=C/c1ccccc1OCC(=O)O | 6.65%
2 | O=c1[nH]cnc2scc(-c3ccc(-c4ccccc4)cc3)c12 | 19.7%
3 | O=C(CSc1nnc2ccccn12)Nc1cccc(S(=O)(=O)N2CCOCC2)c1 | 2.93%
4 | CCCOc1ccc(S(=O)(=O)Nc2ccccn2)c2ccccc12 | 14.6%
5 | COC(=O)/C(=C/c1ccco1)NC(=O)c1ccco1 | 9.62%
6 | O=C(Nc1ncc(Br)s1)C1CCCN1S(=O)(=O)c1cccc2cccnc12 (centres unmarked) | -1.15%
7 | CC1CN(c2ccc([N+](=O)[O-])c(N3CCCCC3)c2)CCN1 (centres unmarked) | 8.07%
8 | COc1ccc(OC)c2nc3c(cc12)CCC3 | 17.8%
9 | CCc1ccc(N(CC(=O)NC2CCCCC2)S(=O)(=O)c2c(C)noc2C)cc1 | 15.4%
10 | COc1ccccc1OCCCC(=O)NCc1ccco1 | 14.3%
11 | CC(C)c1nnc(NC(=O)CCC(=O)N2CCN(c3cccc(Cl)c3)CC2)s1 | -0.97%
12 | CC12CN(NC(=O)c3ccc(Cl)cc3)C3(C#N)CC1CCC23C (centres unmarked) | 16.9%
13 | Cc1ccnc(NC(=O)c2ccc(Cl)c(NC(=O)c3ccccc3C)c2)c1 | 10.8%
14 | c1ccc2c(c1)[nH]c1c(N3CCN(C4CCCCC4)CC3)ncnc12 | -0.461%
15 | COC(=O)c1ccccc1NC(=O)CCCn1nc(C)c2c(C)n(-c3ccccc3)nc2c1=O | 9.75%
16 | Cc1ccc2oc(-c3ccccc3)c(C(=O)O)c(=O)c2c1 | 9.14%
17 | CCN1CCN(C(=O)/C=C/c2ccc(C)o2)CC1 | 10.5%
18 | Cc1ccc(NC(=O)CSC(N)=O)cc1Cl | 7.65%
19 | Cc1c(C(=O)N2CCOCC2)sc(NC(=O)c2ccc([N+](=O)[O-])cc2)c1C#N | 15.8%
20 | COc1ccc(C)cc1NS(=O)(=O)c1ccc(Br)s1 | 1.38%
21 | Cc1ccc(N2C(=O)C(CC(=O)Nc3cccc(F)c3)N(CCc3ccncc3)C2=O)cc1 (centres unmarked) | -7.51%
22 | COc1ccc(CNC(=O)CCCOc2cc(=O)n(C)c3ccccc23)cc1 | 11.2%
23 | CC1CC2(CCCCC2)N2C(=O)C(=O)c3cccc1c32 (centres unmarked) | 3.32%

Row | SMILES | hERG current change (%, negative = inhibition) at 1uM
24 | Cc1cc(Cn2nc(C(=O)NCc3cccc(C(F)(F)F)c3)cc2-c2ccccc2)on1 | -2.81%
25 | CC(=O)c1ccc(NC(=S)N2CCC(O)CC2)cc1 | 26.4%
26 | O=S(=O)(NC(=NC1CCCCC1)c1ccccc1F)c1ccccc1 | 11.5%
27 | C[C@@H]1CC[C@H](O)/C=C/C(=O)O[C@H](C)CC[C@H](O)/C=C/C(=O)O1 | 13.1%
28 | Cc1ccc2cccc(NC3OC(=O)c4ccccc43)c2n1 (centres unmarked) | 22.2%
29 | CCCCCCC(=O)N/N=C1\CCCc2ccccc21 | 4.95%
30 | Cc1cc(C)n2nc(C(=O)OCC(=O)c3ccccc3Cl)nc2n1 | 5.63%
31 | COc1ccc(NC2CCCN(C(=O)c3cc(C)nc4cc(F)ccc34)C2)cc1 (centres unmarked) | 22.8%
32 | CC(C)COc1cccc(C(=O)NC(=S)NCc2cccnc2)c1 | 4.19%
33 | Fc1ccc(N2N=C(c3cccs3)CC2c2ccccc2)cc1 (centres unmarked) | 14.1%
34 | Cc1cc2cc(C=O)c(Cl)nc2cc1C | 13.6%
35 | CCOc1ccc(Cc2c(Cl)nc(SC)nc2N(C)C)cc1 | 0.539%
36 | O=S(=O)(NC1c2cccc3cccc(c23)C1Sc1ncccn1)c1ccc(Cl)cc1 (centres unmarked) | 4.24%
37 | Cc1ccc(-c2c(C#N)c(N)n3c(nc4ccccc43)c2C#N)cc1 | 7.2%
38 | O=C(CCn1c(=O)oc2ccccc21)NCCN1CCOCC1 | 11.9%
39 | Cc1ccc(Cn2c(C)c3cnn(CC(=O)NCc4ccccn4)c(=O)c3c2C)cc1 | 12.4%
40 | CC(=O)c1ccc(OCc2cc(C(=O)N3CCN(C4CCCC4)C(=O)C3)no2)cc1 | 24.1%
41 | COc1ccccc1Nc1ncnc2c1cnn2-c1cccc(C)c1 | 0.0902%
42 | COc1cc(Cl)ccc1OCc1cc(C(=O)NCC(C)c2ccccc2)no1 (centres unmarked) | 11.5%
43 | CCc1ccc(NCc2ccc(OC)c(Cn3ccnc3)c2)cc1 | 9.63%
44 | COc1ccc(CNS(=O)(=O)NCc2ccc(OC)c(OC)c2)cc1OC | -1.48%
45 | NC(=O)C(=O)NN=C1C2CC3CC(C2)CC1C3 | 11.9%
46 | COc1cccc(C(=O)Nc2ccc(NC(=O)C3CCCCC3C(=O)O)cc2)c1 (centres unmarked) | 12.6%

Row | SMILES | hERG current change (%, negative = inhibition) at 1uM
47 | O=[N+]([O-])c1cc([As](=O)(O)O)ccc1O | 14.9%
48 | NC(=O)CN1CCN(c2nc(-c3ccc(F)cc3)cs2)CC1 | 4.03%
49 | Cc1ccc(C)c(S(=O)(=O)N2CCN(C(=O)Cn3cnc4c3c(=O)n(C)c(=O)n4C)CC2)c1 | 1.06%
50 | Cc1cc([N+](=O)[O-])ccc1NC(=O)CCC(=O)N1CCCC1 | 7.82%
51 | CCOc1ccc(NC(=O)CC2C(=O)N(c3ccccc3)C(=O)N2Cc2ccccn2)cc1 (centres unmarked) | -5.68%
52 | CCOC(=O)N1CCN(C(=O)CN(c2ccc(C)cc2)S(=O)(=O)c2c(C)noc2C)CC1 | 6.27%
53 | COc1ccc(CC(=O)NNC(=O)c2cc(C)oc2C)cc1OC | 5.16%
54 | CCOc1ccccc1CNC(=O)C1CCN(c2nnc(C)c3c(C)n(-c4ccc(C)cc4)nc23)CC1 | -5.49%
55 | C=C(C)Cn1c(CCCNC(=O)C(C)(C)C)nc2ccccc21 | -17.9%
56 | CN(C)S(=O)(=O)c1cccc(NC(=O)c2cc([N+](=O)[O-])ccc2N2CCCCC2)c1 | -8.27%
57 | CC(C)(C)NNC(=S)Nc1cccc(C(F)(F)F)c1 | 12%
58 | CCCn1c(SCC(=O)NCc2ccc(F)cc2)n[nH]c1=O | 14%
59 | CC(=O)c1c(COC(=O)c2ccco2)nc2ccccc2[n+]1[O-] | 4.26%
60 | Cc1ccsc1C(=O)OCC(=O)NCCNC(=O)COC(=O)c1sccc1C | -1.41%
61 | COC(=O)c1sccc1NC(=O)Nc1cccc(C)c1 | 5.31%
62 | COc1ccc(CCNC(=S)Nc2ccccc2)cc1 | 4.29%
63 | COc1ccc(NS(=O)(=O)c2cccc(C(=O)N3CCCC(C)C3)c2)cc1 (centres unmarked) | 3.3%
64 | O=S(=O)(c1ccccc1)N1CCC(O)(CN2CCN(c3ccccc3)CC2)CC1 | 14.8%
65 | O=C(COc1ncnc2sccc12)Nc1cccc(S(=O)(=O)N2CCCC2)c1 | 2.21%
66 | Cc1ccc(OCC(=O)Nc2ccncc2)c(C)c1 | 4%
67 | O=C(N/N=C/c1ccc(OC(=O)c2ccccc2)cc1)c1cccnc1 | 19.1%
68 | CCNc1nc(NCC)n2c(SCC(=O)Nc3ccc(C(F)(F)F)cc3[N+](=O)[O-])nnc2n1 | 10.6%
69 | Cc1nn(C(=O)/C(C#N)=C/N(C)C)c(C)c1C | 17.7%

Row | SMILES | hERG current change (%, negative = inhibition) at 1uM
70 | CCNc1nnc(CSc2nc3ccccc3s2)s1 | -9.62%
71 | CCOC(=O)c1cccc(NC(=O)c2ccccc2C)c1 | -8.45%
72 | Fc1ccc(-c2nn(-c3ccccc3)cc2CNCc2ccccc2)cc1 | 7.64%
73 | N/C(COc1ccc(Cl)cc1Cl)=N\NS(=O)(=O)c1ccccc1 | 5.59%
74 | N#CCCn1nc(-c2ccccc2)cc1Nc1ccccc1NC(=O)c1cccs1 | 12.5%
75 | O=C(COC(=O)c1cc(Cl)ccc1O)NNC(=O)c1ccc([N+](=O)[O-])cc1 | 3.31%
76 | NC(=O)c1ccc(N2CCN(c3ccc(O)cc3)CC2)c([N+](=O)[O-])c1 | 0.331%
77 | COc1cc(NC(=O)COc2ccc(-n3ccnc3)cc2)cc(OC)c1 | -4.56%
78 | CCOC(=O)C(=CNc1cc(C(F)(F)F)ccc1N1CCOCC1)C(=O)OCC | -1.02%
79 | COc1cc(C(=O)N/N=C(\c2ccccc2)c2ccccn2)cc(OC)c1OC | 9.74%
80 | CCc1ccc(/C=C2/SC(=S)N(CCC(=O)Nc3cccnc3)C2=O)cc1 | -0.954%
81 | C/C(=N\NC(=O)CSc1nc2ccccc2c(=O)n1-c1ccccc1C)c1cccs1 | 7.59%
82 | CC(=O)N1N=C(c2ccccc2O)OC1(C)CC(=O)Nc1ccccc1 (centres unmarked) | 1.15%
83 | CC(Oc1ccccc1)C(=O)Nc1cc(Cl)ccc1-n1cncn1 (centres unmarked) | -6.12%
84 | COc1ccccc1C(CC(=O)O)c1ccc2c(c1)OCO2 (centres unmarked) | 9.8%
85 | CC(C)C1=CC(=Nc2ccc(S(N)(=O)=O)cc2)C=C(C(C)C)C1=O.O | 13.3%
86 | COc1cccc(C(c2sc3nc(C)nn3c2O)N2CCc3ccccc3C2)c1 (centres unmarked) | 2.75%
87 | Cn1c(CNc2nc(-c3ccccc3)cs2)nnc1SCC(=O)N1CCc2ccccc21 | 9.84%
88 | Cc1ccc(C(=O)n2nnc3ccccc32)cc1 | 7.88%
89 | CN(Cc1ccccc1)S(=O)(=O)c1ccc(NS(=O)(=O)Cc2ccccc2)cc1 | 13.1%
